# Assay results as given in PubChem BioAssay AID1460 (National Center for Advancing Translational Sciences (NCATS), 2008).
# “And” between values parts separate entries of the source, which are not always exact repeats. Equal entries are not always repeated. Hit rate of the full screen: of about 270,000 compounds, about 5,800 (2.1%) were called active. The shares of active, inactive and inconclusive entries below differ from those in the screen. Calls come from the whole dose curve; as a rule, active = well fitted inhibition curve with a large enough effect; inconclusive = small, poorly fitted or top-dose-only effect; inactive = flat fitted curve, though single readings scatter. Potencies beside an inconclusive call are fits to weak or partial responses and may not hold up.
# Target: Microtubule-associated protein tau (Homo sapiens) (UniProt P10636)
# Assay: qHTS for Inhibitors of Tau Fibril Formation, Thioflavin T Binding; note: nearly all actives have a fitted effect of over 55% in size
# Settings: recombinant tau K18 P301L (four-repeat tau fragment), heparin-induced fibrillization, ThT fluorescence; series mostly up to 57.4 µM
# How it was run: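 Heparin-induced (20 uM) aggregation of recombinant human K18 P301L tau, 15 uM unlabeled with 0.24 uM labeled, pH 7 acetate buffer, 6 hr at 37 C with compound. Fibrils quantified by 30 uM ThT fluorescence after 1 hr ambient incubation.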
# Potency is the fitted concentration of half-maximal effect; tags give direction and shape of the fitted curve.
# UniProt P10636, sequence (P10636 whole entry, looked up): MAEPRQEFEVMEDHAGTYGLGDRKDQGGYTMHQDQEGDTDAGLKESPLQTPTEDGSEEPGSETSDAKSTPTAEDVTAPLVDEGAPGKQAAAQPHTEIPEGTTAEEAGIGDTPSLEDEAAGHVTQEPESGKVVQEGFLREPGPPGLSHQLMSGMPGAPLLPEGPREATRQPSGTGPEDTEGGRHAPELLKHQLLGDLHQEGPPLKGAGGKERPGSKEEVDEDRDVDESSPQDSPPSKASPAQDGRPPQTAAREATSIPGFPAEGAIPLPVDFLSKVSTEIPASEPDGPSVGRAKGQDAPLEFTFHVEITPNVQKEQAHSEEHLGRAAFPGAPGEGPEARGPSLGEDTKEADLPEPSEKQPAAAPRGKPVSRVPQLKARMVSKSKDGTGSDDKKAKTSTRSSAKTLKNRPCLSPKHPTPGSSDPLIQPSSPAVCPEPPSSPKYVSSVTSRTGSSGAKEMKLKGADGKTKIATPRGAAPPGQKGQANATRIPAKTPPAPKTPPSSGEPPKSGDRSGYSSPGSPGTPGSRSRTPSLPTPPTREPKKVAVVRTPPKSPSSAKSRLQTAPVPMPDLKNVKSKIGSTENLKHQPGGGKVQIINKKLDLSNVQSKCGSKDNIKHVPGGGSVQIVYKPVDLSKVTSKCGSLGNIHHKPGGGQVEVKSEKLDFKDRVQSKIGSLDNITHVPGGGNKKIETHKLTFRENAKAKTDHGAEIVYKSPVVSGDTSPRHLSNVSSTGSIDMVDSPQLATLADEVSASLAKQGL
row,SMILES,Potency
1,Cc1nc(N2CCOCC2)c2c(C(=O)N3CCN(c4cc(Cl)ccc4C)CC3)c(C)oc2n1,inactive
2,NNC(=O)CCn1nnc2ccccc21,"inconclusive: 1 µM [inhibitor, partial curve]"
3,S=C(NCCc1ccccc1)N1CCCCC1,inactive
4,CC(C)Cn1c(SC(C)C(=O)Nc2ccc3c(c2)OCCO3)nc2ccccc2c1=O (stereo not drawn),inactive
5,Cn1c(Sc2ccc(Cl)cc2)c(C=O)c2ccccc21,"inconclusive: 39.8 µM [inhibitor, partial curve]"
6,COc1ccc(OC)c(C2=C/C(=C/c3ccccn3)C(=O)O2)c1,"inconclusive: 14.1 µM [inhibitor, partial curve]"
7,CCOC(=O)C1CCCN(C(=O)c2sc3nc(-c4ccc(OC)cc4)cn3c2C)C1 (stereo not drawn),"inconclusive: 15.8 µM [inhibitor, partial curve]"
8,CN(c1nc(-c2ccc(Br)cc2)cs1)C1CCS(=O)(=O)C1 (stereo not drawn),"inconclusive: 15.8 µM [inhibitor, partial curve]"
9,Nc1ccc(C(=O)OCc2ccncc2)cc1[N+](=O)[O-],"inconclusive: 14.1 µM [inhibitor, partial curve]"
10,COc1cc(NC(=O)Cn2c(=O)n(Cc3ccccc3)c(=O)c3oc4ccccc4c32)cc(OC)c1,"inconclusive: 22.4 µM [activator, partial curve, poor fit]"
11,CCOC(=O)c1c(S(=O)(=O)N2CCC(C(=O)Nc3ccc(C)cn3)CC2)c(C)n(C)c1C,inactive
12,N#C/C(=N\Nc1ccccc1Cl)C(=O)c1ccccc1,active: 20 µM
13,CCCCn1c(-c2csc3ccccc23)n[nH]c1=S,inactive
14,Cc1cc(C)cc(NC(=O)CC(C)n2nc(C)cc2C)c1 (stereo not drawn),inactive
15,CCN(CC)c1ccc(NC(=O)CN2CCN(S(=O)(=O)c3ccc(C(C)C)cc3)CC2)cc1,"inconclusive: 20 µM [inhibitor, single point]"
16,O=C(c1ccc(Br)o1)N(Cc1ccccc1)Cc1ccccc1,"inconclusive: 31.6 µM [inhibitor, single point]"
17,O=[N+]([O-])c1cccnc1N1CCN(c2ccc(F)cc2)CC1,"inconclusive: 12.6 µM [inhibitor, partial curve]"
18,CCn1c(SC)nc2c([nH]c3ccccc32)c1=O,inactive
19,Cc1cccc(C)c1N1CCN(S(=O)(=O)N2CCCCC2)CC1,"inconclusive: 31.6 µM [inhibitor, single point]"
20,Cc1cccc(C(=O)NC(=S)N2CCN(c3ccc([N+](=O)[O-])cc3)CC2)c1,"inconclusive: 2.51 µM [inhibitor, full curve, poor fit]"
21,COc1ccc(CNC(=O)Nc2ccc3c(c2)N(C)C(=O)CS3)cc1,"inconclusive: 7.94 µM [inhibitor, partial curve]"
22,C#CCNC(=O)C1=C[C@@H](c2ccc(C(F)(F)F)cc2)[C@H](CCCO)[C@@H](OCC)O1,inactive
23,Cc1ccc(CNC(=O)c2oc3ccc(S(=O)(=O)N4CCCC(C)C4)cc3c2C)cc1 (stereo not drawn),inactive

row,SMILES,Potency
1,Cc1oc2ncnc(N3CCCCC3)c2c1C(=O)NCC1CCN(Cc2ccccc2F)CC1,inactive
2,COc1ccc(N2CCN(C(=O)C(C)(C)Oc3ccc(Cl)cc3)CC2)cc1,"inconclusive: 28.2 µM [inhibitor, single point]"
3,COc1cc(-c2ccno2)ccc1S(=O)(=O)N1CCN(c2cccc(Cl)c2)CC1,"inconclusive: 35.5 µM [inhibitor, single point]"
4,CC(Nc1nc(-c2ccccc2O)nc2ccccc12)c1ccccc1 (stereo not drawn),"inconclusive: 12.6 µM [inhibitor, partial curve, poor fit]"
5,Cc1[nH]c(=O)[nH]c(=O)c1S(=O)(=O)Nc1cccc(Cl)c1C,inactive
6,CC(=O)Nc1nc(C)c(-c2csc(Nc3ccc(S(N)(=O)=O)cc3)n2)s1,"inconclusive: 2 µM [inhibitor, full curve, poor fit]"
7,COc1ccccc1C1CCN(C(=S)Nc2ccc(Br)cc2)CC1,"inconclusive: 1.41 µM [inhibitor, full curve]"
8,COc1ccccc1/C=N/NC(=O)c1ccccc1NS(=O)(=O)c1ccc(C)cc1,"inconclusive: 8.91 µM [inhibitor, partial curve, poor fit]"
9,Cc1cccc(COCC(CC(C)C)N2CCN(C(=O)c3ccc(C(F)(F)F)cc3)CCC2=O)c1 (stereo not drawn),"inconclusive: 31.6 µM [inhibitor, single point]"
10,O=C(NNS(=O)(=O)c1ccc(Br)cc1)C1CCCCC1,inactive
11,COc1ccc(NC(=O)C2=C(C)Nc3nc(SCc4ccc(C)cc4C)nn3C2c2cccc(OC)c2OC)cc1 (stereo not drawn),inactive
12,O=C(CSc1ccc(-c2ccco2)nn1)c1ccc(F)cc1,"inconclusive: 25.1 µM [inhibitor, partial curve]"
13,O=C(/C=C/Nc1ccccc1)c1cnc(-c2ccccc2)s1,"inconclusive: 2.51 µM [inhibitor, partial curve]"
14,COc1ccc(N=Cc2nc(-c3ccccc3)oc2OC(C)=O)cc1,"inconclusive: 4.47 µM [inhibitor, partial curve]"
15,COc1ccc(COc2cc(-c3cccc(OC)c3)nc3ccc(N)cc23)cc1,"inconclusive: 7.94 µM [inhibitor, partial curve]"
16,Cc1c(C(=O)O)c(O)cc2c1C(=O)c1c(O)c([C@H]3O[C@H](CO)[C@@H](O)[C@H](O)[C@H]3O)c(O)c(O)c1C2=O,"inconclusive: 14.1 µM [inhibitor, partial curve] and inconclusive: 28.2 µM [inhibitor, partial curve]"
17,CCOc1cc(/C=C2\SC(=O)N(CC(=O)Nc3ccccc3F)C2=O)cc([N+](=O)[O-])c1O,active: 7.94 µM
18,CC1=CC(C)(C)n2c(O)c(N=NC(N)=S)c3c(C)ccc1c32,"inconclusive: 14.1 µM [inhibitor, partial curve]"
19,Cc1ccc(/C=C(\C#N)C(=O)Nc2cccc3ncccc23)o1,active: 14.1 µM
20,Cc1ccc(NC(=O)COc2cccc3ccc(C)nc23)c(Br)c1,"inconclusive: 28.2 µM [inhibitor, single point]"
21,COc1ccc(OC)c(NC(=O)Cn2nc3c(cc2=O)CCCC3)c1,inactive
22,COc1cc(CNCc2ccccn2)ccc1OCc1ccc(Cl)c(Cl)c1,inactive
23,c1ccc(Oc2nc3ccccc3n3cccc23)cc1,"inconclusive: 44.7 µM [inhibitor, single point]"

row,SMILES,Potency
1,CCOC(=O)c1[nH]c(C)c(CCC(=O)Nc2ccc(N(CC)CC)cc2C)c1C,"inconclusive: 10 µM [inhibitor, partial curve, poor fit]"
2,Oc1ccc(/C=N/Nc2nccnc2Cl)c(O)c1,"inconclusive: 8.91 µM [inhibitor, partial curve]"
3,CCS(=O)(=O)N1CC(=O)N(c2cccc(C)c2C)C(C)(C(=O)NC2CCCCC2)C1 (stereo not drawn),inactive
4,Cc1csc(NC(=O)Cc2coc3cc(C)c(C(C)C)cc23)n1,inactive
5,COc1ccc(NCc2cc3ccccc3[nH]c2=O)cc1,"inconclusive: 31.6 µM [inhibitor, partial curve]"
6,Cc1ccc(-c2c3c(=O)n(C)c(=O)n(C)c3c3c(C(F)(F)F)nc4ccccc4n23)cc1,inactive
7,O=c1ccc(Oc2nc(N3CCCCC3)nc(N3CCCCC3)n2)n[nH]1,inactive
8,COC(=O)c1cc2occc2n1Cc1ccc(Cl)cc1,"inconclusive: 31.6 µM [inhibitor, partial curve]"
9,COc1ccccc1N1CCN(C(=O)c2oc3ccc(Br)cc3c2C)CC1,inactive
10,COc1ccccc1N1CCN(C(=O)c2oc3ccc(F)cc3c2C)CC1,"inconclusive: 39.8 µM [inhibitor, single point]"
11,COc1ccc(C(=O)N/N=C(\c2ccccc2)c2ccccn2)cc1,"inconclusive: 10 µM [inhibitor, partial curve]"
12,Cc1ccc(-n2ncc3c(NCCCc4ccccc4)ncnc32)cc1C,"inconclusive: 2.51 µM [inhibitor, partial curve]"
13,Cc1ccc(S(=O)(=O)N/N=C/c2cc([N+](=O)[O-])ccc2O)cc1[N+](=O)[O-],"inconclusive: 17.8 µM [inhibitor, single point]"
14,CC(C)(C)Nc1nc(SCC(=O)Nc2ccccc2)nc(N2CCOCC2)n1,"inconclusive: 39.8 µM [inhibitor, single point]"
15,CCOC(=O)c1ccccc1N1C(=O)CSC1=S,"inconclusive: 17.8 µM [inhibitor, partial curve, poor fit]"
16,CCOc1cc(-c2nc(C)c(C(C)=O)n2O)ccc1OCC(=O)Nc1ccc(F)cc1,"inconclusive: 25.1 µM [inhibitor, single point]"
17,COc1ccccc1NC(=O)Nc1nc(-c2cccnc2)nc2ccccc12,"inconclusive: 22.4 µM [inhibitor, single point]"
18,Cc1cccc(N2CCN(C(=O)c3cc4ccccc4oc3=O)CC2)c1C,"inconclusive: 22.4 µM [inhibitor, single point]"
19,CC(C)Cc1nc(N2CCN(C(=O)c3ccccc3)CC2)c(C#N)c2c1CCC2,"inconclusive: 15.8 µM [inhibitor, partial curve]"
20,O=C(Cn1c(=O)n(Cc2ccccc2)c(=O)c2oc3ccccc3c21)Nc1ccc(Cl)cc1,"inconclusive: 3.16 µM [activator, partial curve]"
21,Cc1ccc(C(=O)NCC(=O)OCC(=O)/C=C2\N(C)c3ccccc3C2(C)C)cc1C,"inconclusive: 25.1 µM [inhibitor, single point]"
22,O=C(NC(=S)Nc1ccccc1N1CCCC1)c1cccc(F)c1,"inconclusive: 28.2 µM [inhibitor, single point]"
